In the supplement of paper PMC10338343:
± gives the standard deviation. Only a part is listed here, and it is no random draw.

The sequences below were run on MIWI (PIWIL1) piRISC loaded with piRNA #1 (30 nt) (assay: pre-steady-state target cleavage rate (min^-1); MIWI and MILI are mouse PIWI proteins and EfPiwi is from a freshwater sponge; tags in brackets are library labels; higher = faster piRNA-guided slicing of the target). Conditions: guide: piRNA #1 5'p-UGAGGUAGUAGGUUGUAUAGUAUCCAGAGG; auxiliary factor: 500 nM mouse GTSF1.
Procedure, shortened: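 In HEPES–potassium acetate buffer at 33 °C, […] transcribed, DNA-blocked target RNA library was mixed with 1 nM active affinity-purified piRISC carrying one synthetic guide, with or without 500 nM GTSF1 partner protein, for 0–8 or 0–960 min. Uncleaved targets were sequenced and normalised to depth and to weakly complementary targets; three trials were pooled and k3 was capped at 0.0001 min^-1. The pre-steady-state cleavage rate followed from a burst-and-steady-state fit.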
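Also: 1 nM active piRISC with 0.1 nM target library at 33 °C single turnover.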

Row | Sequence | pre-steady-state target cleavage rate
1 | GGAGAGGAUUCUAUACAACCUACAACCUCA | 0.487 ± 0.051
2 | CCUCUGGAUACUAUACAUCCUACUACCUCA | 1.85 ± 0.12
3 | GGUCUGGAUACUACACAACCUACUACCUCA | 1.79 ± 0.1
4 | GGAGACCUAUCUAUCAACCUACUACCUCA | 0.0324 ± 0.0055
5 | GGACUGGAUACUAUACAACGUACUACCACA | 0.604 ± 0.06
6 | GGUCAGGAUACUAUACAACCUACAACCUCA | 0.515 ± 0.04
7 | GGACGGAUACUAUACAACCUACUACCUCA | 1.86 ± 0.11
8 | GGAGUGGUUUCUAUACAACCUACUACCUCA | 1.32 ± 0.081
9 | GGAGACCUAUGAUAUGUUCCUACUACCGUCA | < 0.0001
10 | GGAGACGAUACUAUACAACGUUCUACCUCA | 0.0938 ± 0.0099
11 | GGAGUGGUUACUAUACAUCCUACUACCUCA | 1.43 ± 0.099
12 | GGAGACGAUAGUAUACAACCUACUUCCUCA | 0.345 ± 0.048
13 | GGAGACCUAUGUUUACAACGUACUACCUCA | 0.00344 ± 0.0033
14 | GGAGACCUAUCUAUACAACCUAGAACCUCA | 0.00892 ± 0.0022
15 | GGAGACGAUUCUAUACAACCUACUACCACA | 1.57 ± 0.092
16 | GGAGACCUUACUAUACAACCUACUAUCCUCA | 1.16 ± 0.077
17 | GGAGACCUAUGAUAUGUUCCUACUACCCCA | < 0.0001
18 | GCUCUGGAUACUAUACAACCUACUGCCUCA | 1.5 ± 0.11
19 | GCUCUGGAAUCUAUACAACCUACUACCUCA | 1.58 ± 0.099
20 | GGAGACCAUUCUAUACAACCUACUACCACA | 1.16 ± 0.1

Row | Sequence | pre-steady-state target cleavage rate
21 | GGAGACCUAUCUAUACAACCUACUACCAUCA | 0.782 ± 0.063
22 | GGAGUGGAUACUAUACAACCUACUACCACA | 0.51 ± 0.044
23 | GGAGACCUAACUAUACUACCUACUACGUCA | 0.135 ± 0.037
24 | GGAGUGGAUACUAUACAACGUACUACCUGA | 0.0904 ± 0.019
25 | GGAGACCAAUCUAUACAACCUACUACCUCA | 1.04 ± 0.087
26 | CCUCUGGAUACUAAACAACCUACUAGCUCA | 1.27 ± 0.1
27 | GGUCUCGAUACUUUACAACCUACUACCUCA | 1.54 ± 0.093
28 | GGAGUGAAUACUAUACAACCUACUACCUCA | 1.76 ± 0.12
29 | CCUCUGGAUACUAAAGAACCUACUACCUCA | 1.56 ± 0.12
30 | GGUCUCCAUACUAUACAACCUACUACCUCA | 1.79 ± 0.1
31 | GGAGACCUAACUAUACAACGUACUUCCUCA | 0.0216 ± 0.007
32 | GGAGACCUUACUAAACAACCUACAACCUCA | 0.228 ± 0.041
33 | GGUCUGGAUACGUAUACAACCUACUACCUCA | 1.44 ± 0.081
34 | GCUCUGGAUACUAUACAACCUACUAGCUCA | 1.26 ± 0.11
35 | GGAGACCUAUGAUAUGUUGCUUCUACCUGA | < 0.0001
36 | CCUCUGGAUACUAUAGUUCCUACUACCUCA | 0.226 ± 0.029
37 | CCUCUGCAUACUAUACAACCUACAACCUCA | 1.7 ± 0.12
38 | GGAGUGGAUACUAUACAACCGACUACCUCA | 0.0107 ± 0.0017
39 | GGAGACCUAUGAUAUCAUCCUACUAGCUCA | < 0.0001
40 | GGAGACGAUACUAUACAACCUACUCCUCA | 0.00404 ± 0.0028
